Source: PubChem BioAssay AID1347120 (National Center for Advancing Translational Sciences (NCATS), 2019)
Among all 390,000 compounds or so, about 930 (0.24%) were called active. The inconclusive results got no clear call from the source; some entries with a clear call stand among them for comparison. The call rests on the fitted dose curve; in most records, active means well fitted activation curve with a large enough effect; inconclusive means small, poorly fitted or top-dose-only effect; inactive means no such curve, though single readings can be large or run the other way. A potency beside an inconclusive call is a rough fit, not a confirmed value.

Assay: qHTS for Suppressors of FUS Proteinopathy: Primary screen using FUS-linked yeast assay; further: nearly all actives have a fitted effect of over 55% in size;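 on growth rescue (activation): plate controls were DMSO vehicle for no effect and reference control for full effect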
Conditions: S. cerevisiae FUS-expressing, OD600, 24 h; Potency: growth rescue; growth rescue (activation): at 76.6 µM (top of the series)
In short: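 S. cerevisiae expressing FUS from galactose induction served as the toxicity model. Growth after 24hr at 30C, read as absorbance at 600 nm, indicates suppression of toxicity; compounds dosed at several concentrations.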
Potency means the concentration at half of the fitted maximal effect; tags describe the fitted curve by direction and shape.

Row | SMILES | Potency | growth rescue (activation)
1 | C[C@@H]1CN([C@@H](C)CO)C(=O)c2c(c3ccccc3n2C)-c2ccccc2CO[C@H]1CN(C)S(=O)(=O)c1ccc(C#N)cc1 | inconclusive: 15.8 µM [activator, partial curve, poor fit] | 
2 | CCOC(=O)C1=NN(c2ccc(OC)cc2)C2C(=O)N(c3ccccc3OC)C(=O)C12 (stereo unspecified) | inconclusive: 35.5 µM [activator, partial curve, poor fit] | 
3 | Cc1sc2nc(C(C)C)nc(SCC(=O)N3CCOCC3)c2c1C | inconclusive: 17.8 µM [activator, partial curve] | 
4 | COc1cc(C)ccc1S(=O)(=O)NC(=O)C1(C)CCN1C(=O)c1ccc(C2CCCCC2)cc1 (stereo unspecified) | inconclusive: 31.6 µM [activator, single point] | 
5 | COc1ccccc1OCCn1cc(/C=N/NC(N)=S)c2ccccc21 | inconclusive: 35.5 µM [activator, single point] | 
6 | O=C(N/N=C\c1ccc([N+](=O)[O-])o1)C1COc2ccccc2O1 (stereo unspecified) |  | inactive: 13.9%
7 | CCc1ccccc1N1C(=O)N(CC(=O)c2ccc(Cl)cc2)c2ccccc2S1(=O)=O | inconclusive: 3.98 µM [activator, full curve] | 
8 | O=C(NC(=S)Nc1cccnc1)c1cccc(Cl)c1 |  | inactive: 1.56%
9 | Cc1cccc(NC(=O)NNC(=O)COc2ccc(Cl)cc2)c1 | inconclusive: 10 µM [activator, full curve, poor fit] | 
10 | COc1ccc(CCNC(=O)CSc2cn(CCNC(=O)c3ccccc3F)c3ccccc23)cc1OC | inconclusive: 50.1 µM [activator, single point] | 
11 | COc1ccc(-c2cc([C@H]3[C@@H]4C=CCC[C@@]4(C)C(=O)N3Cc3ccccc3)ccc2F)cc1OC | inconclusive: 35.5 µM [activator, single point] | 
12 | CC(C)(C)CNC(=O)C1(C)CCN1C(=O)Cc1ccc(C(C)(C)C)cc1 (stereo unspecified) | inconclusive: 31.6 µM [activator, single point] | 
13 | Cc1oc2c(cc(NS(=O)(=O)c3ccc(F)cc3)c3ccccc32)c1C(=O)O | inconclusive: 0.891 µM [activator, partial curve, poor fit] | 
14 | O=C(c1cccs1)N1CCN(C(=O)c2cn(-c3ccccc3)nc2-c2ccccc2)CC1 | inconclusive: 28.2 µM [activator, partial curve, poor fit] | 
15 | C=CCN1C(=O)NC(c2ccc(OC)cc2)(C(F)(F)F)S/C1=C(\C#N)c1nnc(N2CCOCC2)n1-c1ccccc1 (stereo unspecified) | inconclusive: 12.6 µM [activator, partial curve, poor fit] | 
16 | COc1ccc(/C=C2\CC3(OC(=O)C4CCCC4)CCCN2C3)cc1 (stereo unspecified) |  | inactive: 4.62%
17 | Cc1onc(C(=O)Nc2cccc(C(F)(F)F)c2)c1[N+](=O)[O-] |  | inactive: -4.47%
18 | Fc1ccc(C(c2nnc(-c3ccccc3)o2)N2CCN(c3ccccc3)CC2)c(Cl)c1 (stereo unspecified) | inconclusive: 28.2 µM [activator, partial curve, poor fit] | 
19 | CCOC(=O)CNC(=S)N(Cc1ccccc1F)C1CCCCC1 |  | inactive: 9.66%
20 | COc1ccc(-c2csc(NC(C)c3nc4cc(Cl)c(Cl)cc4n3CCCO)n2)cc1 (stereo unspecified) | inconclusive: 31.6 µM [activator, single point] | 
21 | COC(=O)C(NC(=O)c1ccccc1Cl)(Nc1ncc(S(=O)(=O)c2ccc([N+](=O)[O-])cc2)s1)C(F)(F)F (stereo unspecified) | inconclusive: 31.6 µM [activator, single point] | 

Row | SMILES | Potency | growth rescue (activation)
22 | CN(C)c1ccc(/C=N/NC(=S)NCc2ccccc2)cc1 | inconclusive: 22.4 µM [activator, partial curve] | 
23 | O=[N+]([O-])c1ccc(Sc2nccn2Cc2ccccc2)cc1 |  | inactive: -0.73%
24 | O=C(N1CCOCC1)N1CC[C@H]2[C@H](CCCN2Cc2cc(F)cc(F)c2)C1 |  | inactive: -5.21%
25 | CCN(C(=O)CN1C(=O)NC(c2ccccc2)(c2ccc(C)c(C)c2)C1=O)C1CCCCC1 (stereo unspecified) | inconclusive: 28.2 µM [activator, partial curve, poor fit] | 
26 | Cc1ccc2c(Cl)c(C)c(N3CCCC3)nc2n1 |  | inactive: 15%
27 | COc1ccc(-c2oc(NC(=O)CSc3nncn3C)c(C#N)c2-c2ccc(OC)cc2)cc1 |  | inactive: 15.6%
28 | Fc1cccc(-c2oncc2-c2nnnn2-c2ccc(Cl)cc2)c1 |  | inactive: 32.4%
29 | Cc1ccc(C=NNC(=O)CSc2nc3sc4c(c3c(=O)n2-c2ccccc2)CCCC4)s1 |  | inactive: 8.84%
30 | Cc1cccc(C(=O)OCc2cc(=O)n3nc(C4CC4)sc3n2)c1 |  | inactive: 16.2%
31 | Cc1ccc(N(Cc2ccccc2)C(=O)c2cc(S(=O)(=O)N3CCOCC3)ccc2Cl)cc1 | inconclusive: 15.8 µM [activator, partial curve, poor fit] | 
32 | Cc1ccc(N(C(=O)Cc2cccs2)C(C(=O)NC2CCCCC2)c2ccccn2)cc1C (stereo unspecified) | inconclusive: 31.6 µM [activator, partial curve, poor fit] | 
33 | Cc1cccc(Cn2c(NCCO)nc3c2c(=O)n(C)c(=O)n3C)c1 |  | inactive: 22.8%
34 | CCN(CC(=O)Nc1c(C(=O)OC)[nH]c2ccccc12)c1ccc2c(c1)OCO2 | inconclusive: 44.7 µM [activator, single point] | 
35 | COc1ccc(N2CCN(C(=O)c3c(C)oc4nc(C)nc(N5CCCC5)c34)CC2)cc1 | inconclusive: 50.1 µM [activator, single point] | 
36 | C=CCN(c1ccccc1)S(=O)(=O)c1cccc(C(=O)N2CC(C)CC(C)C2)c1 (stereo unspecified) | inconclusive: 44.7 µM [activator, single point] | 
37 | COC(=O)c1cc2ccccc2c(-c2c(OC)c(C(=O)OC)cc3ccccc23)c1OC | inconclusive: 39.8 µM [activator, partial curve, poor fit] | 
38 | Cc1ccc(C)c2sc(N3CCN(C(=O)c4ccco4)CC3)nc12 |  | inactive: 30.7%
39 | CCCCc1ccc(NC(=O)CSc2nc(=O)n(CCN3CCOCC3)c3c2CCC3)cc1 | inconclusive: 15.8 µM [activator, partial curve] | 
40 | CCCCN(C)CCNC(=O)CCNC(=O)Cn1ccc2ccccc2c1=O |  | inactive: -11.6%
41 | CCc1ccccc1NC(=O)CSc1nc2n[nH]c(C)c2c(=N)n1-c1cccc(OC)c1 | inconclusive: 35.5 µM [activator, single point] | 
